Data: PubChem BioAssay (NCATS)
Inconclusive results, whose numbers are uncertain, are shown with a selection of clear calls. Potencies of inconclusive entries are left out as doubtful fits. Active and inactive are the calls of the source. The call rests on the fitted dose curve; in most records, active means well fitted inhibition curve with a large enough effect; inconclusive means small, poorly fitted or top-dose-only effect; inactive means no such curve, though single readings can be large or run the other way.

target: Rap guanine nucleotide exchange factor 3 (Homo sapiens) (UniProt O95398); assay: Confirmatory qHTS for antagonist of cAMP-regulated guanine nucleotide exchange factor 3 (EPAC1) (AID 1645880); conditions: EPAC1 Rap1B-BODIPY-GDP exchange, fluorescence; series mostly up to 115 µM; further: nearly all actives have a fitted effect of over 55% in size
Outline: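 Nucleotide exchange uses 100 nM EPAC1, 250 nM RAP1B-BODIPY-GDP and 50 uM GDP, with compounds in a concentration-titration series. After 5 min at room temperature, fluorescence (480 nm ex/540 nm em) is read every 5 min for 30 min. Data are normalized to control ATA and DMSO.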
Potency means the concentration at half of the fitted maximal effect; tags describe the fitted curve by direction and shape.

UniProt O95398, sequence (O95398 whole entry, looked up): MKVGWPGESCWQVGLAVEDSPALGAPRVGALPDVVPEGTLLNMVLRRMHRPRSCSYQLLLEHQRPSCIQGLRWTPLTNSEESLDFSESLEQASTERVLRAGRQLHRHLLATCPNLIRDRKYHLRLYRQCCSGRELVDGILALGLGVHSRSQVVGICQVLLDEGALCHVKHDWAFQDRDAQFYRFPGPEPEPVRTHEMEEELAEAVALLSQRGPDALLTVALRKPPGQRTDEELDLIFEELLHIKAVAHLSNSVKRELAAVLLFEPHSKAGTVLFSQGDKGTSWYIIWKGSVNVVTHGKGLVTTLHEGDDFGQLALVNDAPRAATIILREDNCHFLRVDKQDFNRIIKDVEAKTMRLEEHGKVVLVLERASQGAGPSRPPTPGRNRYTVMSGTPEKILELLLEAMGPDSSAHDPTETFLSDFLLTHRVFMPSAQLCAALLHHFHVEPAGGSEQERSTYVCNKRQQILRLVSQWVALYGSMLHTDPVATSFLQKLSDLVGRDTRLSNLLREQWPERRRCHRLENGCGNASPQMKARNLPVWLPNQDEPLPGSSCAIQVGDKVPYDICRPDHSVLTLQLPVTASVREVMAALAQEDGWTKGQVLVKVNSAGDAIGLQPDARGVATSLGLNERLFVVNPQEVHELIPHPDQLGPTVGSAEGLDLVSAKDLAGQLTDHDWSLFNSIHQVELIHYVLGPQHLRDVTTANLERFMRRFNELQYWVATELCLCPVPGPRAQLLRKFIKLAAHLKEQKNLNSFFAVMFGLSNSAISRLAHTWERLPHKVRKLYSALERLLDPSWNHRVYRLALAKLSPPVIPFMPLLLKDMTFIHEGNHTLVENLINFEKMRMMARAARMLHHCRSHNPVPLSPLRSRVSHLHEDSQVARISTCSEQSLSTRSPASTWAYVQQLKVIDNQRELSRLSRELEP

Row | SMILES | Potency
1 | O=C(O)c1ccccc1NS(=O)(=O)c1ccc(N/N=C/c2ccc(O)c(O)c2)c([N+](=O)[O-])c1 | active: 8.91 µM
2 | CC(OC(=O)/C(C#N)=C/c1ccc(N(C)C)cc1)C(=O)N(C)c1ccccc1 (stereo not drawn) | inactive
3 | Cc1nc(-[n+]2nc(-c3ccncc3)nn2-c2ccccc2)sc1C | active: 22.4 µM
4 | COc1cc(/C=C2/SC(=O)NC2=O)ccc1OCc1ccccc1 | inconclusive [inhibitor, partial curve]
5 | CCOC(=O)C(C)n1nc(-c2ccccc2)c2ccccc2c1=O (stereo not drawn) | inconclusive [inhibitor, partial curve, poor fit]
6 | COC(=O)c1cc2c(N)c(C(=O)c3ccc(Cl)cc3)sc2nc1C(OC)OC | inconclusive [inhibitor, partial curve, poor fit]
7 | COc1cc(C2CC(=O)Oc3cc(C)cc(C)c32)cc(OC)c1OC (stereo not drawn) | inactive
8 | CCc1ccc(N(C(=O)c2csnn2)C(C(=O)NCc2ccccc2)c2ccco2)cc1 (stereo not drawn) | inconclusive [inhibitor, partial curve, poor fit]
9 | COC(=O)c1ccc2nc(-c3ccc(OC)c(OC)c3)c(Cc3ccccc3)n2c1 | inconclusive [inhibitor, partial curve, poor fit]
10 | C=CCn1c(SCC(=O)Nc2cc(Cl)ccc2C(=O)O)nc2sc(C)c(C)c2c1=O | inconclusive [inhibitor, single point]
11 | NCC1OC(n2cnc3c(=O)[nH]c(N)nc32)C(O)C1O (stereo not drawn) | inactive
12 | O=C1c2ccccc2C(=O)N1c1nc(-c2cccs2)cs1 | active: 4.78 µM
13 | COc1ccc(C2CCc3cc4c(cc3C2=NO)OCO4)cc1OC (stereo not drawn) | inactive
14 | Cc1ccccc1C(=O)Nc1ccc(C(=O)OCc2cc(=O)n3c4c(sc3n2)CCCC4)cc1 | inactive
15 | CCOC(=O)c1ccc2c(c1)C1C=CCC1C(C(=O)OCC)N2 (stereo not drawn) | inconclusive [inhibitor, partial curve]
16 | Oc1[nH]c2ccc(Br)cc2c1N=Nc1ccc(F)cc1 | active: 84.9 µM
17 | CC(/C=C1\SC(=S)N(C(C(=O)O)C(C)C)C1=O)=C\c1ccccc1 (stereo not drawn) | active: 47.8 µM

Row | SMILES | Potency
18 | Cc1ccc(NS(=O)(=O)c2cccc3cccnc23)c(Cl)c1 | inconclusive [inhibitor, full curve, poor fit]
19 | C/[N+]([O-])=C/c1c(OCc2ccccc2)ccc2ccccc12 | inconclusive [inhibitor, partial curve, poor fit]
20 | Cc1ccc(C2(c3noc(CN(C)Cc4ccccn4)n3)CCCC2)cc1 | inactive
21 | CC(=O)N(CCC(Cc1ccccc1)c1ccco1)Cc1ccco1 (stereo not drawn) | inconclusive [inhibitor, partial curve, poor fit]
22 | Cc1ccc(C(CCN(Cc2ccccc2)C(=O)c2ccco2)c2ccco2)cc1 (stereo not drawn) | active: 37.9 µM
23 | O=[N+]([O-])c1cc(CN2CCN(c3cccc(C(F)(F)F)c3)CC2)c2cccnc2c1O | inconclusive [inhibitor, partial curve]
24 | CCC(Oc1ccccc1)C(=O)Nc1ccccc1N1CCCC1 (stereo not drawn) | inconclusive [inhibitor, partial curve, poor fit]
25 | CCCC[C@@H]1C[C@H]1[C@@H](NC(=O)c1ccco1)c1ccc(Cl)cc1 | inconclusive [inhibitor, partial curve, poor fit]
26 | CCCc1[nH]nc2c1C(c1cccnc1)C(C#N)=C(N)O2 (stereo not drawn) | inactive
27 | CCOC(=O)C1=C(C)N(C)C(C)=C(C(=O)OCC)C1c1ccc(Cl)cc1 | inconclusive [inhibitor, partial curve, poor fit]
28 | O=C(NCCS(=O)(=O)N1CCc2ccccc2C1)c1ccccc1 | inactive
29 | O=c1c(O)c(-c2ccc(O)c(O)c2)oc2c(OC3OC(CO)C(O)C(O)C3O)c(O)cc(O)c12 (stereo not drawn) | inactive
30 | Cc1ccc(CNS(=O)(=O)c2ccc(-n3cnnn3)c(C)c2)cc1 | inactive
31 | O=c1ccc(-c2ccccc2)nn1Cc1ccc(F)cc1Cl | inconclusive [inhibitor, partial curve, poor fit]
32 | COC(=O)c1cc(NC(=O)c2ccccc2)c(=O)oc1C/C=N\OCc1ccc(Cl)cc1Cl | inactive
33 | CCOc1ccc(N(Cc2ccc(OC)cc2)C(=O)c2ccco2)cc1 | inconclusive [inhibitor, partial curve, poor fit]
